The source gives no read counts; variants with many changes may rest on few reads.
B1: OR4K15 (parent)
chain: GUUAACGGUCAUAGGCCAUGGAAACUAGGAGCACCAUUUCGCUGCCAGUGAAGAAAUGAACAAAGAAAAUCUGGGCCAGGCAGGCAUCAAAAGAAAUAGUCUUGCGCUCAACCAGAAAGUCUGUAAUCAUUUUAAGGGUA

Variants of: B1
Assay: self-cleavage, relative activity (ratio to wild type); higher = more cleavage; in vitro, sequencing; the parent is a self-cleaving ribozyme

Variant	self-cleavage
GUUAACGGUCAUAGGCCAUGGAAGCUAGGAGCACCAUUUCGCUGCCAGUGGAGAAAUGUACAAAGAAAAUCUGGGCCAGGCAGGCAUCAAAAGGAAUAGUCUUGCGCUCAACCAGAAAGUCUGUAAUCAUUUUAAGGGUA [A24G A51G A59U A94G]	1.57
GUUAACGGUCAUAGGCCAUGGAAGCUAGGAGCACCAUUUCGCUGCCAGUGAGGAAGUGAACAAAGAAAAUCUGGGCCGGGCAGGCAUCAAAAGAAAUAGUCUUGCGCCCAACCAGAAAGUCUGUAAUCAUUUUAAGGGUA [A24G A52G A56G A78G U108C]	0.06
GUUAACGGUCAUAGGCCAUGGAAGCUAGGAGCACCAUUUCGCUGCCAGUGGAGAAAUGAACAAAGAAAAUCUGGGCCAGGCGGGCAUCAAAAGAAAUAGUCUUGCGCUCAACCAGAAAGUCUGUAAUCAUUUUAAGGGUA [A24G A51G A82G]	0.44
GUUAACGGUCAUAGGCCAUGGAAGCUAGGAGCACCAUUUCGCUGCCGGUGGAGAAAUGAACAAAGAAAAUCUGGGCCAGGCAGGCAUCAGAAGAAAUAGUCUUGCGCUCAACCAGAAAGUCUGUAAUCAUUUUAAGGGUA [A24G A47G A51G A90G]	1.02
GUUAACGGUCAUAGGCCAUGGAAGCUAGGAGCACCAUUUCGCUGCCAGUGAGGAAAUGAACAAAGAAGAUCUGGGCCAGGCAGGCGUCAAAAGAAAUAGUCUUGCGCCCAACCAGAAAAUCUGUAAUCAUUUUAAGGGUA [A24G A52G A68G A86G U108C G119A]	0.02
GUUAACGGUCAUAGGCCAUGGAAGCUAGGAGCACCUUUUCGCUGCCAGUGAAGAAAUGAACAAAGAAGAUCUGGGCCAGGCAGGCACCAAAAGAAAUAGUCUUGCGCUCAACCAGAAAGUCUGUAAUCAUUUUAAGGGUA [A24G A36U A68G U87C]	1.17
GUUAACGGUCAUAGGCCAUGGAAGCUAGGAGCACCAUUUCGCUGCCGGUGAAGUAAUGAACAAAGAAAAUCUGGGCCAGGCAGGCAUCAAAAGAAAUAGUCAUGCGCUCAACCAGAAAGUCUGUAGUCAUUUUAAGGGUA [A24G A47G A54U U102A A126G]	0.01
GUUAACGGUCAUAGGCCAUGGAAGCUAGGAGCACCAUUUCGCUGCCAGUGAUGAAAUGAACAAAGAAAAUCUGGGCCAGGCAGGCACCAAAAGAAAUAGUCUUGCGCUCAACCAGAAAGUCUGUAAUCAUUUUAAGGGUA [A24G A52U U87C]	0.5
GUUAACGGUCAUAGGCCAUGGAAGCUAGGAGCCCCAUUUCGCUGCCAGUGAAGAAGUGAACAAAGAAAAUCUGGGCCAGGCAGGCAUCAAAAGAAAUAGUCCUGCGCUCAACCAGAAAGUCUGUAAUCAUUUUAAGGGUA [A24G A33C A56G U102C]	1.97
GUUAACGGUCAUAGGCCAUGGAAGCUAGGGGCACCAUUUCGCUGCCAGUGAAGAAAUGAACAAAGAAAAUCUGGGCCAGGCGGGCGUCAAAAGAAAUAGUCUUGCGCUCAACCAGAGAGUCUGUAAUCAUUUUAAGGGUA [A24G A30G A82G A86G A117G]	0.16
GUUAACGGUCAUAGGCCAUGGAAGCUAGGGGCACCAUCUCGCUGCCAGUGAGGAAAUGAACAAAGAAAAUCUGGGCCAGGCGGGCAUCAAAAGAAAUAGUCUUGCGCUCAACCAGAAAGUCUGUAAUCAUUUUAAGGGUA [A24G A30G U38C A52G A82G]	0.56
GUUAACGGUCAUAGGCCAUGGAAGCUAGGAGCACCAUUUCGCUGCCAGUGGAGAAAUGAACAAAGAAAAUCUGGGCCAGGCAGGCAUCAAAAGAAAAAGUCUUGCGCUCAACCAGAAAGUCUGUAAUCAUUUUAAGGGUA [A24G A51G U97A]	1.73
GUUAACGGUCAUAGGCCAUGGAAGCUAGGAGCACCAUUUCGCUGCCAGUGUAGAAAUGAACAAAGAAAAUCUGGGCCAGGCAGGCAUCAAAAGAAAUAGUCUUGCGCUCAACCAGAAAAUCUGUAAUCAUUUUAAGGGUA [A24G A51U G119A]	1.71
GUUAACGGUCAUAGGCCAUGGAAGCUAGGAGCACCAUUUCGCUGCCAGUGAGGAAAUGAACAAAGGAAACCUGGGCCAGGCAGGCAUCAAAAGAAAUAGUCUUGCGCUCAACCAGAAAGUCUGCAAUCAUUUUAAGGGUA [A24G A52G A66G U70C U124C]	0.5
GUUAACGGUCAUAGGCCAUGGAAGCUUGGAGCACCAUUUCGCUGCCAGUGAAGAAAUGAACAAAGAAAAUCUGGGCCAGGCAGGCAACAAAAGAAAUAGUCUUGCGCUCAACCAGAAAGUCUGUAAUCAUUUUAAGGGUA [A24G A27U U87A]	0.59
GUUAACGGUCAUAGGCCAUGGAAGCUAGGGGCACCAUUUCGCUGCCAGUGAAGAAAUGAACAAAGAAAAUCUGGGCCAGGCAGGCAUCAAUAGAAAUAGUCUUGCGCUCAACCAGAAAGUCUGUAAUCAUUUUAAGGGUA [A24G A30G A91U]	1.68
GUUAACGGUCAUAGGCCAUGGAACCUAGGAGCACCAUUUCGCUGCCAGUGAAGAAAUGAACAAAGAAAAUCUGGGCCAGGCAGGCACCAAAAGAAAUAGUCUUGCGCUCAACCAGAAAGUCCGUAAUCAUUUUAAGGGUA [A24C U87C U122C]	1.78
GUUAACGGUCAUAGGCCAUGGAAGCUAGGGGCACCAUUUCGCUGCCAGUGAAGAAGUGAACAAAGAAAAUCUGGGCCAGGCAGGCAUCAAAAGAAAUAGUCUUGCGCUCAACCAGAAAGUCUGUAAUCAUUUUAAGGGUA [A24G A30G A56G]	0.72
GUUAACGGUCAUAGGCCAUGGAAGCUAGGAGCGCCAUUUCGCUGCCAGUGAAGAAGUGAACAAAGAAAAUCUGGGCCAGGCAGGCAUCAAAAGAAAUAGUCUUGCGCUCAACCAGAAAGUCUGUAAUCAUUUUAAGGGUA [A24G A33G A56G]	0.67
GUUAACGGUCAUAGGCCAUGGAAGCUAGGAGCACCAUUUCGCUGCCGGUGAAGAAAUGAACAAAGAAGAUCUGGGCCAGGCAGGCAUCGAAAGAAAUAGUCUUGCGCUCAACCAGAAAGCCUGUAAUCAUUUUAAGGGUA [A24G A47G A68G A89G U120C]	0.75
GUUAACGGUCAUAGGCCAUGGAAGCUAGGAGCACCAUUUCGCUGCCAGUGAGGGAAUGAACAAAGAAAAUCUGGGCCAGGCAGGCAUCAAAAGAAAUAGUCUUGCGCUCAACCAUAAAGUCUGUAAUCAUUUUAAGGGUA [A24G A52G A54G G115U]	0.27

Variant	self-cleavage
GUUAACGGUCAUAGGCCAUGGAAGCUAGGAGCACCGUUUCGCUGCCAGUGAAGAAAUGAGCAAAGAAAAUCUGGGCCAGGCAGGCGUCAAAAGAAAUAGUCUUGCGCUCAACCAGAAAGUCUGUAAUCAUUUUAAGGGUA [A24G A36G A60G A86G]	1.51
GUUAACGGUCAUAGGCCAUGGAACCUAGGAGCACCAUUUCGCUGCCAGUGAAGAAAUGAACAAAGAAAACCUGGGCCAGGCAGGCAUCAAAAGAAAUAGUCUUGCGCUCAACCAGAAAGUCUGUAAUCAUCUUAAGGGUA [A24C U70C U131C]	1.11
GUUAACGGUCAUAGGCCAUGGAAGCUGGGAGCACCAUUUCGCUGCCAGUGAAGAAAUGAACAAAGGAAAUCUGGGCCAGGCAGGCAUCAAAAGAAAUAGUCUUGCGCUCAACCAGAAAGUCUGUAAUCAUUUUAAGGGUA [A24G A27G A66G]	0.24
GUUAACGGUCAUAGGCCAUGGAACCUAGGAGCACCAUUUCGCUGCCAGUGAAGAAAUGAACAAAGAAAAUCUGGGCCAGGCAGGCAUCAAAAGAAAUAGUCUUGCGCCCAACCAGAAGGUCUGUAAUCAUUUUAAGGGUA [A24C U108C A118G]	0
GUUAACGGUCAUAGGCCAUGGAAGCUAGGAGCACCAUUUCGCUGCCAGUGUAGAAAUGAACAAAGAAAAUCUGGGCCAGGCAGGCAUCAAAGGGGAUAGUCUUGCGCUCAACCAGAAAGUCUGUAAUCAUUUUAAGGGUA [A24G A51U A92G A94G A95G]	1.21
GUUAACGGUCAUAGGCCAUGGAAGCUAGGAGCUCCAUUUCGCUGCCAGCGAAGAAAUUAACAAAGAAAAUCUGGGCCAGGCAGGCAUCAAAAGAAAUAGUCUUGCGCUCAACCAGAAAGUCUGUAAUCAUUUUAAGGGUA [A24G A33U U49C G58U]	1.41
GUUAACGGUCAUAGGCCAUGGAAGCUAGGAGCGCCAUUUCGCUGCCAGUGAAGGAAUGAACAAAGAAAGUCUGGGCCAGGCAGGCAUCAAAAGAAAUAGUCUUGCGCUCAACCAGAAAGUCCGUAAUCAUUUUAAGGGUA [A24G A33G A54G A69G U122C]	0.68
GUUAACGGUCAUAGGCCAUGGAAGCUUGGAGCACCACUUCGCUGCCAGUGAAGAAAUGAACAAAGAAAAUCUGGGCCAGGCAGGCAUCAAAAGAAAUAGUCUUGAGCUCGACCAGAAAGUCUGUAAUCAUUUUAAGGGUA [A24G A27U U37C C105A A110G]	0.05
GUUAACGGUCAUAGGCCAUGGAAGCUAGGAGCACCAUUUCGCUGCCAGUGGAGAAAUGAGCAAAGAAAAUCUGGGCCAGGCAGGCAUCAAAAGAAAUAGUCUUGCGCUCAACCAGAAAGUCUGUAAUCAUUUUAAGGGUA [A24G A51G A60G]	0.6
GUUAACGGUCAUAGGCCAUGGAAGCUAGGAGCCCCAUUUCGCUGCCAGUGAAGAAAUGAGCAAAGAAAAUCUGGGCCGGGCAGGCAUCAAAAGAAAUAGUCUUGCGCUCAACCAGGAAGUCUGUAAUCAUUUUAAGGGUA [A24G A33C A60G A78G A116G]	0.27
GUUAACGGUCAUAGGCCAUGGAACCUAGGAGCACCAUUUCGCUGCCAGUGAAGAAAUGAACAAAGAAAAGCUGGGCCAGGCAGGCAUCAAAAGAAAUAGUCUUGCGCUCAACCAGAGAGUCUGUAAUCAUUUUAAGGGUA [A24C U70G A117G]	1.62
GUUAACGGUCAUAGGCCAUGGAAGCUGGGAGCACCAUUCCGCUGCCAGUGAAGAAAUGAACAAAGAAAAUCUGGGCCAGGCAGGCAUCAAAAGAAAUAGUCUUGCGCUCAACCAGAAAGUCUGUAAUCAUCUUAAGGGUA [A24G A27G U39C U131C]	0.76
GUUAACGGUCAUAGGCCAUGGAAGCUAGGAGCACCUUUUCGCUGCCAGUGAAGAAAUGAACAAAGAAAGUCUGGGCCAGGCAGGCAUCGAAAGAAAUAGACUUGCGCUCAACCAGAAAGUCUGUAAUCAUUUUAAGGGUA [A24G A36U A69G A89G U100A]	0.33
GUUAACGGUCAUAGGCCAUGGAAGCUAGGAGCACCAUUUCGCUGCCGGUGAAGAAAUGAACAAAGAAAAUCUGGGCCAGGCAGGCAUCGAAAGAAAUAGUCUUGCGCUCAACCAGAAAGUCUGUAAUCAUUUUAAGGGUA [A24G A47G A89G]	0.91
GUUAACGGUCAUAGGCCAUGGAAGCUAGGAGCACCAUUUCGCUGCCUGUGAAGAAAUGAACAAAGAAAAUCUGGGCCAGGCAGGCAUCAAUAGAAAUAGUCUUGCGCUCAACCAGAAAGUCUGUAAUCAUUUUAAGGGUA [A24G A47U A91U]	1.08
GUUAACGGUCAUAGGCCAUGGAAGCUAGGAGCACCAUUUCGCUGCCAGUGGAGAAAUGAACAAAGAAAAUCUGGGCCAGGCAGGCAUCAAAAGAAAUAGCCUUGCGCUCAACCAGAAAGUCUGUAAUCAUUUUAAGGGUA [A24G A51G U100C]	1.47
GUUAACGGUCAUAGGCCAUGGAAGCUAGGAGCACCAUUUCGCUGCCAGUGUAGAAAUGCACAAAGAAAAUCUGGGCCAGGCAGGCAUCAAAAGAAAUAGUCUUGCGCUCAACCAGAAAGACUGUAAUCACUUUAAGGGUA [A24G A51U A59C U120A U130C]	0.54
GUUAACGGUCAUAGGCCAUGGAAGCUAGGAGCACCAUUUCGCUGCCGGUGAAGAAAUGAACAAAGAAAACCUGGGCCAGGCAGGCAUCAAAAGAAAUAGUCUUGCGCUCAACCAGAAAGUCUGUAAUCAUUUUAAGGGUA [A24G A47G U70C]	0.14
GUUAACGGUCAUAGGCCAUGGAAGCUAGGAGCACCAUUUCGCUGCCAGUGAGGAAAUGAGCAAAGAAAAUCUGGGCCAGGCAGGCAUCAAAAGAAAUAGUCUUGCGCUCAACCAGAAAGUCUGUAAUCAUUCUAAGGGUA [A24G A52G A60G U132C]	0.69
GUUAACGGUCAUAGGCCAUGGAAGCUAGGAGCACCAUUUCGCUGCCAGUGAGGAAAUGAACAAAGAAAAUCUGGGCCAGGCAGGCAUCAAAAGAAAUAGUCUUGCGCUCAACCAGAAAGUCUGUAACCAUUUUAAGGGUA [A24G A52G U127C]	0.86

From the RNAGym collection of RNA variant scans (doi:10.7554/elife.90254)
